Experimental data taken from PMC4336329 (PLoS ONE, 2015).
In all, about 310,000 compounds went through this assay and about 14,000 (4.5%) showed an effect of 50% or more. The effect is printed as a negative number. The list shows a part of the results.

Target: human ether-à-go-go-related gene (hERG) potassium channel (human, UniProt Q12809)
Test: primary screen, population patch clamp on CHO cells stably expressing hERG
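Also: peak tail current of the secondary pulse compared with the same well before compound.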

Chain of human ether-à-go-go-related gene (hERG) potassium channel (Q12809 whole entry, looked up): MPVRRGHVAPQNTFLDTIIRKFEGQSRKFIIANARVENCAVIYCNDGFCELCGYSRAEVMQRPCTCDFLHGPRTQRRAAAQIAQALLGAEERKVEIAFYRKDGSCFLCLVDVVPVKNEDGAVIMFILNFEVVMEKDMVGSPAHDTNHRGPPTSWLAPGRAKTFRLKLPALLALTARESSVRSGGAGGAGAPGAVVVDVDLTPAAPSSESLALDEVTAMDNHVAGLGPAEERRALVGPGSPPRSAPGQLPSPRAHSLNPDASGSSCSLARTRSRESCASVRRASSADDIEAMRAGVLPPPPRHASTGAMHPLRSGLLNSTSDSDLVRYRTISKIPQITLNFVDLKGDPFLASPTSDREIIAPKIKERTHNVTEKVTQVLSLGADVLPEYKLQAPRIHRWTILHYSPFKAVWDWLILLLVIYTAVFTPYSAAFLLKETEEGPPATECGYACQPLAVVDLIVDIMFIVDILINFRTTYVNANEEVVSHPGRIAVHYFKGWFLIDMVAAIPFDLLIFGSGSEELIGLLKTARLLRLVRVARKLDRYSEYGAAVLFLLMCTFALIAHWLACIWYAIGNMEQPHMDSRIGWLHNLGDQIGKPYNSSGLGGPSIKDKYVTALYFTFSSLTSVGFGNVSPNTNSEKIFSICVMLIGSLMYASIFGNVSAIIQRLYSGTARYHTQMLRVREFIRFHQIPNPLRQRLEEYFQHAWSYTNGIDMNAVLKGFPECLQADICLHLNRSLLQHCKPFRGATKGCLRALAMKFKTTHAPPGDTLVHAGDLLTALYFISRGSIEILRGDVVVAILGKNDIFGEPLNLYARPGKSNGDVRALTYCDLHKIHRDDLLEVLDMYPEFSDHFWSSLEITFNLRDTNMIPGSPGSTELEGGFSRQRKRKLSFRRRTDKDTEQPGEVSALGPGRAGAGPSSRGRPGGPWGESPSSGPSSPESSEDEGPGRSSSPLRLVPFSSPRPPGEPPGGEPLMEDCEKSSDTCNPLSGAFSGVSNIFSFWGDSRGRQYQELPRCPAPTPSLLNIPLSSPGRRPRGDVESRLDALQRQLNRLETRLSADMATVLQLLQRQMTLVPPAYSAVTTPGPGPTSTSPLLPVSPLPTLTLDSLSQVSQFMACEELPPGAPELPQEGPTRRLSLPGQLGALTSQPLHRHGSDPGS

Row | SMILES | hERG current change (%, negative = inhibition) at 10uM [%]
1 | CC1CCCC(C)N1/N=C/c1ccc(O)cc1 (centres unmarked) | 8.87
2 | CC(C)c1noc2ncc(C(=O)c3cc(Cl)cc(Cl)c3O)cc12 | 19
3 | COC(=O)C1=C(c2ccc(OC(F)(F)F)cc2)C[C@@H]2CC[C@H]1N2C(=O)NCc1cccc2ccccc12 | 20.4
4 | COc1ccc(C(=O)NCC(=O)c2ccccc2)cc1 | 13.8
5 | CSCC[C@H](NC(=O)c1ccco1)c1nnc2ccccn12 | 7.31
6 | Cc1cccc(N2C(=O)CS/C2=N\NC(=O)c2ccc(Br)cc2)c1C | -0.819
7 | COc1cccc(C(=O)NNC(=O)C(=O)Nc2cccc3ccccc23)c1 | 18.1
8 | Cc1ccc(C2=NN(CCC(=O)NC3CCCC3)C(=O)CC2)cc1 | -48.1
9 | O=C(C1=C[C@H](C2CC2)C[C@H](OCCCCO)O1)N1CCOCC1 | 21.2
10 | CC(C)c1c(C(=O)N/N=C/c2ccc(OCc3ccc(F)cc3)cc2)nnn1-c1nonc1N | 15.5
11 | CN1CCN(C(=S)NC(=O)c2cccc(S(=O)(=O)N(C)C)c2)CC1 | 18.6
12 | COc1ccc(C2C3=C(CC(C)(C)CC3=O)Nc3n[nH]c(C)c32)cc1 (centres unmarked) | -11.8
13 | CC(NC(=O)COc1ccccc1)C(=O)OCC(=O)c1cc2ccccc2o1 (centres unmarked) | 13.6
14 | CC(=O)N1CCC2(CC1)C(C#N)=C(N)Oc1n[nH]c(CSc3ccc(C)cc3)c12 | -4.58
15 | Cc1ccc(CNCC2CCCO2)s1.Cl (centres unmarked) | 2.71
16 | CC1CCN(C(=O)CN(C)S(=O)(=O)c2cccc3nsnc23)CC1 | -7.1
17 | CS(=O)(=O)Nc1ccc(C(=O)N2CCN(c3ccccc3)CC2)cc1 | -61.9
18 | Cc1nn(C(C)C(=O)NCCc2ccccc2)c(=O)c2cc3occc3n12 (centres unmarked) | 1.16
19 | CCc1ccc(Nc2nnc(SC3CCOC3=O)s2)cc1 (centres unmarked) | -8.96
20 | C/C(=N\OCC(=O)Nc1ccc(Br)cc1)c1cccs1 | -10.5
21 | O=C(CN(C1CCCCC1)S(=O)(=O)c1ccc(F)cc1)NC1CC1 | -8
22 | CCN(C(=O)CSc1nnc(NC2CCCCC2)s1)C1CCS(=O)(=O)C1 (centres unmarked) | -2.14

Row | SMILES | hERG current change (%, negative = inhibition) at 10uM [%]
23 | COc1ccc(CN2CCN(c3ccccc3OC)CC2)cc1OC.O=C(O)C(=O)O | -57.9
24 | CC(=O)Nc1ccc(S(=O)(=O)Nc2nc3ccccc3nc2N2CCCC2)cc1 | -8.01
25 | Cc1ccc(C)n1CCN1CCN(C(=O)c2ccc(Cl)cc2)CC1 | -50.3
26 | COC(=O)Cc1[nH]nc2c1C(c1cc(OC)c(OC)c(OC)c1)C(C#N)=C(N)O2 (centres unmarked) | 1.31
27 | N#CCCn1nc(Cc2cccc3ccccc23)c(C#N)c1N | -7.98
28 | CCC1CCCCN1CCCNC(=O)c1ccc2c(=O)n(Cc3ccc(OC)cc3)c(=O)[nH]c2c1 (centres unmarked) | -13.8
29 | CC(C)NC(=O)N1CCC(n2nccc2NC(=O)CCOc2ccccc2)CC1 | 5.85
30 | O=C(NN1C(=O)C2C3C=CC(C4CC34)C2C1=O)c1cccc(Br)c1 (centres unmarked) | 9.46
31 | O=C(NCc1ccc(C(F)(F)F)cc1)C1CC(c2c(Cl)cccc2Cl)=NO1 (centres unmarked) | 0.629
32 | COc1ccc([N+](=O)[O-])cc1NS(=O)(=O)c1cc(C(=O)O)ccc1OC | 17.3
33 | COc1cccc(CN(C)C(=O)CC23CC4CC(CC(C4)C2)C3)c1OC | -43.7
34 | COc1cc(NC(=O)CN2C(=O)NC3(CCOc4ccccc43)C2=O)cc(OC)c1 (centres unmarked) | -3.2
35 | CN(C)C(=O)C(=O)c1cccn1-c1ccccc1C#N | -3.47
36 | O=C(Nc1ccccc1Cl)c1cc(S(=O)(=O)N2CCCC(C(=O)O)C2)ccc1F (centres unmarked) | 3.43
37 | CS(=O)(=O)N1CCN(c2ccc(NC(=O)COc3ccccc3)cc2)CC1 | 0.0465
38 | CN1CCN(c2ccc(NC(=O)c3cccc(OCc4ccccc4)c3)cc2)CC1 | -8.95
39 | CC(C)CC(=O)NC(=S)NNC(=O)c1ccc(NC(=O)C2CCCCC2)cc1 | 4.66
40 | CCN(CC(=O)Nc1cc(Cl)ccc1C)C(=O)Cn1c(=O)cnc2ccccc21 | -46.5
41 | COc1cc(C2C(C#N)=C(N)Oc3cc(O)ccc32)cc(OC)c1OC (centres unmarked) | 4.91
42 | CCCC(=O)c1cc(F)c(N2CCN(S(=O)(=O)c3ccccc3)CC2)cc1C | 13.2
43 | O=C(Cn1nnc2ccccc2c1=O)N[C@H](C(=O)O)c1ccccc1 | 22
44 | Cc1ccc(C(=O)OCC(=O)Nc2cccc(S(=O)(=O)N3CCOCC3)c2)o1 | -53.1
